The text below walks through data of PubChem BioAssay AID463173 (ICCB-Longwood Screening Facility, Harvard Medical School, 2010).

SMILES strings stand for the structures. Screen size: about 52,000 compounds; about 4,300 (8.3%) were called active. No stated cut-off is given here; in the data, active means survival mostly below about 52% (no sharp cut-off); inactive means mostly above about 56%. Some of the results follow.

The test system of this experiment is DeltatarO mutant. Put plainly: growth inhibition of S. aureus wild type versus tarO mutant, primary screen, teichoic acid synthesis inhibitors, RN4220, OD600 (AID 463173). The following applies: OD600, 18 h, hits give low values, screened at 18.75 µg/mL (by protocol).
In the case of `CC1CCCCN1C(=O)CSc1nc(-c2ccccc2)no1` (configuration not stated), the survival was inactive: 83%.
Then `CCc1ccc2occ(CC(=O)N(Cc3ccccc3)C3CCS(=O)(=O)C3)c2c1` (configuration not stated), with inactive: 74%; and `Cc1nc2ccccc2n1C1CCN(C(=O)NC2CCCCC2)CC1`, with inactive: 87%; and `Cc1ccc(NC(=O)CN2C(=O)C(c3ccccc3)=NC23CCCCC3)cc1C`, with inactive: 75%.
As for `CCS(=O)(=O)N1CCCc2cc(C(=O)Nc3cc([N+](=O)[O-])ccc3C)ccc21`, the figure is active: 42%; as for `COc1ccc(-n2c(C)nc3c(cnn3-c3ccc(C)c(C)c3)c2=O)cc1Cl`, inactive: 118%.
As for `COc1cccc(CNC(=O)Cn2c(=O)ccc3cc(S(=O)(=O)N4CCCC4)ccc32)c1`, the figure is inactive: 98%; as for `CCc1ccc(S(=O)(=O)c2nnn3c2nc(N(C)Cc2ccccc2)c2cc(Cl)ccc23)cc1`, inactive: 82%.
`COc1ccc(Nc2nc3c(S(=O)(=O)c4ccccc4)nnn3c3ccc(Cl)cc23)cc1`: the survival was inactive: 95%.
As for `CCN(CC)CCCNC(=O)c1cn(CC)c2ccc(S(=O)(=O)N3CCC(C)CC3)cc2c1=O`, the figure is inactive: 105%; as for `Cc1cc(=O)n(CC(=O)N2CCCCC2)c2c1c(C)nn2C`, inactive: 75%; as for `O=C(Cc1ccccc1)NC1CCS(=O)(=O)C1` (configuration not stated), inactive: 97%.
Then `CC(OC(=O)c1ccco1)C(=O)NC1CCCC1` (configuration not stated), with inactive: 107%; and `CCOC(=O)c1ccccc1NC(=O)CSc1nc(=O)[nH]c2c1CCCC2`, with inactive: 77%.
Then `COc1ccc(NC(=O)c2ccco2)cc1NC(=O)c1cc2ccccc2o1`, with inactive: 95%; and `COc1ccc(Br)cc1CNC(=O)Cn1nc(C)n2c(cc3cc(F)ccc32)c1=O`, with inactive: 67%; and `Cc1ccccc1CNC(=O)Cn1nc(C)c2nn(-c3ccc(Cl)cc3)c(C)c2c1=O`, with active: 37%.
Turning to `CCOC(=O)c1sc2ccccc2c1S(=O)(=O)Nc1cc(OC)ccc1OC`, the survival was inactive: 94%.
As for `Cc1ccc(C)c(N2CCN(S(=O)(=O)c3ccc4[nH]c5c(c4c3)CCCC5)CC2)c1`, the figure is active: -2%.
As for `COc1ccc(CNCc2c(C(=O)O)c(C)n(Cc3ccccc3C)c2C)cc1OC`, the figure is inactive: 91%; as for `COc1ccc(N2CCN(c3ncccc3-c3nc(-c4ccccc4C)no3)CC2)cc1`, inactive: 56%.
Then `CCOc1ccc(C2C(=O)N(C3CCCCC3)CC(=O)N2Cc2ccc(F)cc2)cc1OC` (configuration not stated), with inactive: 61%; and `Cc1cccc(CNC(=O)c2ccc3c(c2)N(C)CCS3)c1`, with inactive: 65%; and `Cc1cc(C)c(NC(=O)CSc2nc3ccccc3c3nc(-c4ccccc4)nn23)c(C)c1`, with inactive: 70%.
For `CCc1ccc(C(c2ccccc2)c2c(C)[nH]c3ccccc23)s1` (configuration not stated), the survival is active: 25%.
Then `CCCC(C)NS(=O)(=O)c1ccccc1` (configuration not stated), with inactive: 67%.
As for `COc1ccc(NC(=O)Cn2c(=O)n(CCCC(=O)NCc3ccccc3Cl)c(=O)c3ccccc32)c(OC)c1`, the figure is inactive: 125%.
As for `Cc1ccc2c(=O)c(C(=O)c3ccccc3)cn(CC(=O)NCc3ccccc3)c2n1`, the figure is inactive: 69%; as for `Cc1ccc(CNc2nc(-c3ccco3)nn2C(=O)c2ccccc2[N+](=O)[O-])cc1`, inactive: 111%; as for `O=C(O)CC(NS(=O)(=O)c1cccc2nsnc12)C(=O)O` (configuration not stated), inactive: 107%.
With `CCS(=O)(=O)Nc1ccc2[nH]c(=O)[nH]c2c1`, the survival is inactive: 88%.
On to `O=C(CSc1nnc(COc2cccc3cccnc23)o1)N1c2ccccc2CCc2ccccc21`, for which the survival was inactive: 77%.
`COc1ccc(CNS(=O)(=O)c2ccc(C(=O)N(C)C)s2)cc1`: the survival was inactive: 66%.
As for `N#Cc1nc(-c2ccc(COc3ccc(Cl)cc3)o2)oc1N1CCCCC1`, the figure is inactive: 49%.
Then `CCOC(=O)c1scc(-c2ccccc2)c1S(=O)(=O)Nc1ccccc1OC`, with inactive: 92%; and `COc1ccccc1N1CCN(c2nc3c(S(=O)(=O)c4ccccc4)nnn3c3ccc(Cl)cc23)CC1`, with inactive: 111%.
Then `Fc1ccc(N2CCN(Cc3nnc(-c4ccccc4Cl)o3)CC2)cc1`, with inactive: 73%; and `O=C1c2[nH]nc(-c3ccccc3O)c2C(c2cccc(OCc3ccccc3)c2)N1CCCO` (configuration not stated), with active: 56%; and `CCc1cccc(C)c1Nc1c(-c2ccc(F)cc2)nc2sccn12`, with inactive: 35%.
With `COc1ccc(Cn2c(SCc3ccc(C(=O)NC4CCCCC4)cc3)nc3ccncc32)cc1`, the survival is inactive: 87%.
As for `CC(C)(C)NC(=O)c1cccc(NC(=O)c2ccco2)c1`, the figure is inactive: 101%; as for `Cc1c(C(=O)N2CCCC2)oc2c1-c1nn(CC(=O)NCc3ccc(OC(C)C)cc3)cc1CC2`, inactive: 84%; as for `CCc1cccc(NC(=O)c2cnc(N3CCOCC3)c3ccccc23)c1`, inactive: 67%.
As for `CN(CC(=O)Nc1ccc(OC(F)(F)F)cc1)S(=O)(=O)c1ccc2c(c1)CCC(=O)N2`, the figure is inactive: 126%; as for `Cc1ccc(CSc2nc(N)cc(N)n2)cc1`, inactive: 114%.
Regarding `Cc1ccc2occ(-c3cc(-c4ccccc4)nc4c3COc3ccccc3-4)c(=O)c2c1`, the survival was inactive: 73%.
As for `Cc1ccc(-n2c(=O)c3c(C)c(C(=O)N(C)C)sc3n(CC(=O)N(C)c3ccccc3)c2=O)cc1C`, the figure is inactive: 69%; as for `Cc1ccc(C)c(NC(=O)CSc2nc3nccnc3c(=O)n2CCc2c[nH]c3ccccc23)c1`, active: 37%; as for `COc1ccc(N2CC(C(=O)NCCS(=O)(=O)N3CCN(c4ccccc4)CC3)CC2=O)cc1` (configuration not stated), inactive: 75%.
As for `C/C(O)=C\c1sc2ccccc2[n+]1C`, the figure is inactive: 91%.
Regarding `COc1ccc(S(=O)(=O)N2CCC(Oc3cccc(C(F)(F)F)c3)CC2)cc1OC`, the survival is inactive: 73%.
Then `CC(C)OCCCNC(=O)c1cn(C)c2ccc(S(=O)(=O)N(C)C3CCCCC3)cc2c1=O`, with inactive: 93%; and `CC(=O)c1ccc(N2CCN(C(=O)Nc3ccc(C)cc3)CC2)cc1`, with inactive: 125%.
As for `COc1cc(C(=O)Nc2ccc3nc4n(c(=O)c3c2)CCCCC4)cc(OC)c1OC`, the figure is inactive: 88%; as for `Cc1ccc(Nc2c(-c3ccc(N4CCOCC4)cc3)nc3ccc(C)cn23)cc1`, inactive: 95%; as for `COc1ccc(NC(=O)CSc2nnc(N)s2)cc1`, inactive: 82%.
Then `Cn1c(=O)oc2cc(S(=O)(=O)NC(CC(=O)O)c3cccc(Br)c3)ccc21` (configuration not stated), with inactive: 67%.
